{"source": "PubChem BioAssay AID662", "about": "(National Center for Advancing Translational Sciences (NCATS), 2007)", "note": "Among all 71,000 compounds or so, about 1,800 (2.5%) were called active. Inconclusive means that the source gave no clear call. Such entries were picked first, then a sample of the others. Calls follow the shape of the dose curve; as a rule, active = well fitted activation curve with a large enough effect in the signal ratio, with a control signal flat (not every such curve was filed as active); inconclusive = small, poorly fitted or top-dose-only effect, or effect the other way, or a change in a side signal; inactive = flat fitted curve, though single readings scatter; the % refers to the signal ratio. Potencies of inconclusive entries are doubtful fits and often do not repeat. Potency is read from the fitted curve at half-maximal effect; tags tell the direction and shape of the fitted curve.", "data": [{"experiment": "Cell signaling CRE-BLA (Fsk stim); as to activity change, negative = inhibition: % of control where 0% means no effect", "settings": "CHO CRE-bla reporter (cAMP response element driving beta-lactamase), forskolin EC10, beta-lactamase ratio; activity change, negative = inhibition: at 38.2 µM (top of the series) unless noted", "method_in_brief": "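Titrated compounds plus EC10 NKH 477 on CHO CRE-bla cells, 3 h, 37 °C. CCF4, 2 h RT. Ratio 460/530 nm → AC50.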", "values": [{"smiles": "CCCc1cc(-c2[nH]ncc2-c2ccc3c(c2)OCCCO3)c(O)cc1O", "activity change, negative = inhibition": "inconclusive: 27.7%"}, {"smiles": "CCn1c(=O)c2cc(C(=O)N3CCOCC3)sc2c2ccccc21", "Potency": "active: 2 µM"}, {"smiles": "CCOC(=O)c1sc(C)c2c(=O)n(CCCN3CCOCC3)cnc12", "Potency": "inconclusive: 25.1 µM [rising, single point]"}, {"smiles": "O=C(c1ccco1)N1CCN(c2ncnc3c2[nH]c2ccc(Br)cc23)CC1", "Potency": "active: 0.251 µM"}, {"smiles": "COCCOC(=O)/C=C1/NC(=O)CS1", "activity change, negative = inhibition": "inconclusive: 17.8%"}, {"smiles": "CC1(C)Cc2ccccc2-c2nnc(-c3ccccn3)n21", "activity change, negative = inhibition": "inconclusive: -24.8%"}, {"smiles": "COc1ccc(OCC(=O)Nc2ccccc2OC(F)F)cc1", "activity change, negative = inhibition": "inactive: -5.59%"}, {"smiles": "Cc1ccc(Nc2nc(N)nc(CN3CCN(C(=O)c4ccco4)CC3)n2)cc1Cl", "Potency": "inconclusive: 10 µM [rising, single point]"}, {"smiles": "CC1(C)Cc2c(C#N)c(SCC(=O)c3ccccc3)nc(N3CCOCC3)c2CO1", "Potency": "inconclusive: 2.51 µM [rising, partial curve, poor fit]"}, {"smiles": "Cc1cc(NC(=O)c2cc(S(=O)(=O)N3CCCCC3)ccc2C)n(-c2ccccn2)n1", "Potency": "inconclusive: 2.51 µM [rising, partial curve]"}, {"smiles": "Cn1c(=O)[nH]c(=O)c2c1nc(CN1CCN(c3ccc(F)cc3)CC1)n2CCCc1ccccc1", "Potency": "inconclusive: 15.8 µM [rising, partial curve]"}, {"smiles": "COc1ccc(C(c2sc3nc(C)nn3c2O)N2CCc3ccccc3C2)cc1", "note": "(stereo not given)", "Potency": "inconclusive: 12.6 µM [rising, partial curve]"}, {"smiles": "COc1ccccc1CN(C(=O)c1ccco1)C(C(=O)NC1CCCC1)c1ccncc1", "note": "(stereo not given)", "activity change, negative = inhibition": "inactive: -3.8%"}, {"smiles": "CCCCN(C)Cc1c(O)ccc2c(-c3ccccc3)cc(=O)oc12", "activity change, negative = inhibition": "inactive: 0.647%"}, {"smiles": "COc1ccc2c(c1)CCc1c(C(=O)NC3CCCCC3)noc1-2", "activity change, negative = inhibition": "inconclusive: 10.4%"}, {"smiles": "CC(C)N(Cc1nc(-c2ccccc2)no1)C(=O)COc1ccccc1", "activity change, negative = inhibition": "inactive: -7.54%"}, {"smiles": "Cc1ccnc2nc(C(=O)OCCOc3ccccc3)nn12", "activity change, negative = inhibition": "inconclusive: 18.4%"}, {"smiles": "Cc1ccc2cc3cc(C(=O)NCCCN4CCCCCC4)oc3nc2c1", "activity change, negative = inhibition": "inconclusive: -17%"}, {"smiles": "O=C1c2ccc(-c3nc4ccccc4o3)cc2C(=O)N1Cc1cccnc1", "Potency": "inconclusive: 20 µM [rising, single point]"}, {"smiles": "CSc1nc(-c2ccccc2)nc(SC)c1C(C)=O", "Potency": "inconclusive: 12.6 µM [rising, partial curve]"}, {"smiles": "CCCCCCCC(=O)O[C@H](CC(=O)O)C[N+](C)(C)C", "activity change, negative = inhibition": "inconclusive: -10.1%"}, {"smiles": "Cc1ccc2nc(NC(=O)CNS(=O)(=O)c3ccc(Br)s3)sc2c1", "activity change, negative = inhibition": "inconclusive: -9.54%"}, {"smiles": "O=C(c1nc2ccc([N+](=O)[O-])cc2[nH]c1=O)[C@@H](O)c1ccc2c(c1)OCO2", "activity change, negative = inhibition": "inactive: 1.58% [at 7.6 µM]"}, {"smiles": "CCOc1ccc(NC2c3ccccc3C(=O)N2Cc2ccco2)cc1", "note": "(stereo not given)", "activity change, negative = inhibition": "inactive: 0.391%"}, {"smiles": "CCCn1c(-c2ccc(F)cc2)n[nH]c1=S", "activity change, negative = inhibition": "inconclusive: 20.7%"}, {"smiles": "O=S(=O)(c1ccc(S(=O)(=O)N2CCCC2)cc1)N1CCCCCC1", "activity change, negative = inhibition": "inactive: 2.34%"}, {"smiles": "Cc1sc2nc(CN(Cc3cccs3)C(=O)NC3CCCCC3)[nH]c(=O)c2c1C", "activity change, negative = inhibition": "inactive: -17.3%"}, {"smiles": "CCOC(=O)C1CCN(C(=O)CCCOc2ccccc2)CC1", "activity change, negative = inhibition": "inconclusive: 0.27% [at 7.6 µM]"}, {"smiles": "COC1Cc2ccccc2N(C(=O)N2CCN(CCO)CC2)c2ccccc21", "note": "(stereo not given)", "activity change, negative = inhibition": "inconclusive: 17.8%"}, {"smiles": "Cc1cc(=O)oc2c(N)c(O)ccc12", "activity change, negative = inhibition": "inconclusive: -14.1%"}, {"smiles": "Cc1cc(C)cc(-n2nnc(C(=O)NCc3ccccc3Cl)c2N)c1", "Potency": "inconclusive: 3.98 µM [rising, partial curve]"}, {"smiles": "CCOC(=O)Cn1c(=O)n(CC(=O)OCC)c2ccccc21", "activity change, negative = inhibition": "inconclusive: 13.9%"}, {"smiles": "CC1=C(C(=O)OC2CCCCC2)C(c2ccco2)n2ncnc2N1", "note": "(stereo not given)", "Potency": "inconclusive: 7.94 µM [rising, partial curve]"}, {"smiles": "COC(=O)[C@@]1(Cc2ccccc2)[C@H]2c3cc(C(=O)N(C)C)n(Cc4ccc(S(C)(=O)=O)cc4)c3C[C@H]2CN1C(=O)c1ccccc1", "activity change, negative = inhibition": "inconclusive: -3.85%"}, {"smiles": "COc1cc(/C=C\\C(=O)CC(=O)/C=C\\c2ccc(O)c(OC)c2)ccc1O", "activity change, negative = inhibition": "inconclusive: 14.6% [fluorescent]"}, {"smiles": "O=C(NCC(=O)N1CCC(N2CCCCC2)CC1)C1CCCCC1", "activity change, negative = inhibition": "inconclusive: 20.8%"}, {"smiles": "CN(C)c1cc(NC(=O)CN2CCOCC2)c2ccccc2n1", "activity change, negative = inhibition": "inactive: 14.1%"}, {"smiles": "O=C(CCCOc1ccccc1)N1CCCc2ccccc21", "activity change, negative = inhibition": "inconclusive: -13.8% [at 7.6 µM]"}, {"smiles": "CC12CCC(c3c(C(=O)Nc4nccs4)nn(-c4ccccc4)c31)C2(C)C", "note": "(stereo not given)", "activity change, negative = inhibition": "inconclusive: 5.24%"}, {"smiles": "Cc1nnc2sc(-c3csc4c3CCCC4)nn12", "Potency": "active: 10 µM"}, {"smiles": "Cc1ccc2[nH]c3c(NCCCN4CCCC4=O)ncnc3c2c1", "Potency": "inconclusive: 25.1 µM [rising, single point]"}, {"smiles": "CCOC(=O)C1=C(C)NC(=O)NC1c1cn(-c2ccccc2)nc1-c1cccs1", "note": "(stereo not given)", "Potency": "inconclusive: 3.16 µM [rising, single point]"}, {"smiles": "Cc1cccn2c(=O)c(C=Nc3ccc(Cl)cc3)c(NCCO)nc12", "activity change, negative = inhibition": "inconclusive: -3.58%"}, {"smiles": "O=C(O)[C@H]1CC=CC[C@@H]1C(=O)Nc1cccc(O)c1", "activity change, negative = inhibition": "inactive: 0.591% [at 7.6 µM]"}, {"smiles": "Cc1nc(NCc2ccccc2)c2nc(-c3ccccc3)n(CC(C)(C)CN(C)C)c2n1", "activity change, negative = inhibition": "inactive: -18%"}, {"smiles": "Cc1ccccc1OCCCC(=O)Nc1ccc(N2CCOCC2)cc1", "activity change, negative = inhibition": "inconclusive: -0.5% [at 7.6 µM]"}, {"smiles": "COc1ccc(CNc2nc(-c3c(C)noc3C)nc3ccccc23)c(OC)c1", "Potency": "inconclusive: 12.6 µM [rising, single point]"}, {"smiles": "O=C1CSc2ccccc2N1Cc1ccccc1F", "activity change, negative = inhibition": "inconclusive: 9.14%"}, {"smiles": "Cc1cc(C)c2nc(N3CCCC3)c(C#N)cc2c1", "Potency": "active: 10 µM"}, {"smiles": "Cc1cccc(-c2noc(-c3ccccc3C(=O)NCC3CCCO3)n2)c1", "note": "(stereo not given)", "Potency": "inconclusive: 20 µM [rising, single point]"}, {"smiles": "Cc1ccc(OCCn2c(=O)cnc3ccccc32)cc1", "activity change, negative = inhibition": "inactive: -10.5%"}, {"smiles": "Cc1c(-c2ccccc2)nc2ccccc2c1C(=O)O", "Potency": "inconclusive: 1 µM [rising, full curve]"}, {"smiles": "CCC1Oc2ccc(C)cc2N(CC(=O)NCCCN2CCCCC2CC)C1=O", "note": "(stereo not given)", "activity change, negative = inhibition": "inactive: 4.32%"}, {"smiles": "CCCn1c(C)nc2c(NC3CCN(Cc4ccccc4)C3)nc(C)nc21", "note": "(stereo not given)", "Potency": "inconclusive: 12.6 µM [rising, single point]"}, {"smiles": "O=C(OCc1cc(-c2ccccc2)no1)c1ccc2ccccc2n1", "activity change, negative = inhibition": "inactive: -0.231%"}, {"smiles": "O=C(Nc1ccc2c(c1)OCO2)c1ccccc1SCC(=O)N1CCCC1", "activity change, negative = inhibition": "inactive: -1.51%"}, {"smiles": "CCCC12CN3CC(C)(CN(C1)C3c1ccc(OC(C)C)cc1)C2=O", "note": "(stereo not given)", "activity change, negative = inhibition": "inactive: -5.25%"}, {"smiles": "CC(/C=C/C=C(C)/C=C/C(=O)O)=C\\C=C\\C=C(C)\\C=C\\C=C(C)\\C=C\\C(=O)O", "activity change, negative = inhibition": "inconclusive: -16.2%"}, {"smiles": "CCNc1ncc2nc(-c3cn(C)c4ccccc34)c(=O)n(C)c2n1", "Potency": "inconclusive: 5.01 µM [rising, partial curve]"}, {"smiles": "CCCn1c(=NC(C)=O)c(C#N)cc2c(=O)n3cccc(C)c3nc21", "Potency": "active: 2.51 µM"}, {"smiles": "O=c1c2c3nc4ccccc4nc3n(CCN3CCOCC3)c2ncn1CCN1CCOCC1", "activity change, negative = inhibition": "inactive: 6.91%"}, {"smiles": "O=C(CC(=O)c1ccccc1)Nc1ccc2c(c1)OCCO2", "activity change, negative = inhibition": "inconclusive: -36.1%"}, {"smiles": "COC(=O)[C@](C)(N)Cc1ccc(O)cc1", "activity change, negative = inhibition": "inactive: -0.228%"}, {"smiles": "N=c1c(C(=O)NCc2ccc(F)cc2)cc2c(=O)n3ccccc3nc2n1Cc1ccco1", "Potency": "inconclusive: 3.16 µM [rising, partial curve]"}, {"smiles": "CC(C)(C)c1ccc(-c2nnc3sc(-c4ccccn4)nn23)cc1", "Potency": "inconclusive: 12.6 µM [rising, partial curve]"}, {"smiles": "COc1ccc(Cn2c(C)ccc2C)cc1", "activity change, negative = inhibition": "inconclusive: -4.79% [at 7.6 µM]"}, {"smiles": "CCOc1ccccc1C1C(C#N)=C(N)SC(N)=C1C#N", "Potency": "inconclusive: 3.98 µM [falling, single point]"}, {"smiles": "C/C(N)=C(/C#N)C(=O)CSc1nc2ccc(C)cc2[nH]1", "Potency": "inconclusive: 3.98 µM [rising, single point]"}, {"smiles": "CCOC(=O)c1ccc(N2C(=O)CC(N3CCN(C(=O)c4ccco4)CC3)C2=O)cc1", "note": "(stereo not given)", "activity change, negative = inhibition": "inconclusive: -6.94%"}, {"smiles": "CC1CN(C(=O)CN2C(=O)NC(C)(c3ccccc3)C2=O)CC(C)O1", "note": "(stereo not given)", "Potency": "inconclusive: 0.316 µM [rising, full curve]"}, {"smiles": "CCCCCCn1cnc2c(c1=O)c1nc3ccccc3nc1n2/N=C/c1ccco1", "Potency": "inconclusive: 1.58 µM [rising, partial curve]"}, {"smiles": "CC(C)c1cc(=O)oc2c3c4c(cc12)CCCN4CCC3", "Potency": "inconclusive: 5.01 µM [rising, partial curve]"}, {"smiles": "CCOc1ccc(CCNC(=O)C2CCN(c3ccc(N4CCOCC4)nn3)CC2)cc1OCC", "activity change, negative = inhibition": "inconclusive: 2.8%"}, {"smiles": "N#Cc1ccc(NC(=O)COC(=O)C2=COCCO2)cc1", "Potency": "inconclusive: 5.01 µM [falling, single point]"}, {"smiles": "CC1(C)O[C@@H]2C[C@H]3[C@H]4C[C@H](F)C5=CC(=O)C=C[C@@]5(C)[C@@H]4[C@H](O)C[C@]3(C)[C@]2(C(=O)CO)O1", "activity change, negative = inhibition": "inactive: -0.472% [at 17.1 µM]"}, {"smiles": "Cc1ccc2[nH]c(C(=O)O)c(-c3ccccc3)c2c1", "activity change, negative = inhibition": "inconclusive: 0.672%"}, {"smiles": "O=C1C[C@H]2C(=O)[C@@H]1[C@@H](C(=O)O)[C@H]2C(=O)O", "activity change, negative = inhibition": "inactive: -7.94% [at 7.6 µM]"}, {"smiles": "COc1ccccc1OCC(=O)NCC1CCCCC1", "activity change, negative = inhibition": "inconclusive: -0.881%"}, {"smiles": "Cn1c(C(=O)NCCN2CCOCC2)cc2c(=O)n(C)c3ccccc3c21", "Potency": "inconclusive: 3.98 µM [rising, partial curve]"}, {"smiles": "CCc1ccc2oc(=O)cc(CN(C)Cc3ccccc3)c2c1", "Potency": "inconclusive: 6.31 µM [rising, partial curve]"}]}]}
